In PubChem BioAssay AID485294 (National Center for Advancing Translational Sciences (NCATS), 2010):
Screen size: about 370,000 compounds; about 150 (0.041%) were called active. This list was built around the results that the source calls inconclusive (neither active nor inactive); the mix of calls is not that of the screen. Calls follow the shape of the dose curve; as a rule, active = well fitted inhibition curve with a large enough effect; inconclusive = small, poorly fitted or top-dose-only effect; inactive = flat fitted curve, though single readings scatter. No potency is given beside an inconclusive call; the fits are too rough.

These molecules were tested against Beta-lactamase (Escherichia coli (strain K12)) (UniProt P00811) (assay: qHTS Inhibitors of AmpC Beta-Lactamase (assay with detergent)). Conditions: AmpC hydrolysis of nitrocefin, absorbance 480 nm, 0.01% Triton; series mostly up to 114 µM.
Method in brief: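 20 mM phosphate pH 7.0 + 0.01% (detergent screen) or 0.0001% Triton X-100; 5.3 nM AmpC reagent; cpd preinc 15 min RT; nitrocefin (800 uM stock) to start; A480 q20 s × 4 min; Activity was normalised to no-enzyme and no-compound control wells.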
Also: nearly all actives have a fitted effect of over 25% in size.
Potency is read from the fitted curve at half-maximal effect; tags tell the direction and shape of the fitted curve.

Sequence of UniProt P00811 (P00811 whole entry, looked up): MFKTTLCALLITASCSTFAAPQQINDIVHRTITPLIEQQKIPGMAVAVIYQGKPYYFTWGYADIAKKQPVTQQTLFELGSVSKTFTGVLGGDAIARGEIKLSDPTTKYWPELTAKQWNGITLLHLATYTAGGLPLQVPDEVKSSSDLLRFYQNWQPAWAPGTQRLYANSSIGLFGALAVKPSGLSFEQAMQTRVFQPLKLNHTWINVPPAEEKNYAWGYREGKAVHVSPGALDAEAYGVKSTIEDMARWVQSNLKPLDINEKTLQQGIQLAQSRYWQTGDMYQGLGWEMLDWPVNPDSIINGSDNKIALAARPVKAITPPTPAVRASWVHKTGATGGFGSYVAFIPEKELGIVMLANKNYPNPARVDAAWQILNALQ

Row | SMILES | Potency
1 | COC(=O)[C@H]1C[C@@H]1[C@H](NC(=O)c1cnccn1)c1ccccc1 | inconclusive [inhibitor, full curve, poor fit]
2 | CCOc1cccc(C(=O)N(Cc2ccc(F)cc2)Cc2ccco2)c1 | inactive
3 | Cc1ccc(NC(=S)NCc2cccnc2)cc1 | inactive
4 | O=C(O)CC(Cc1ccc(Cl)cc1)C(=O)Nc1ccccc1 (stereo not given) | inconclusive [inhibitor, full curve]
5 | Cc1ccc(NC(=O)c2sc3ccccc3c2Cl)nc1 | inactive
6 | O=C(CCCc1ccccc1)Nc1ccnn1C1CCN(Cc2ccc(CO)o2)CC1 | inconclusive [inhibitor, full curve]
7 | O=[N+]([O-])c1ccccc1/C=C/C=N/Nc1nc(N2CCCCC2)nc(N2CCCCC2)n1 | inactive
8 | CCc1cccc(CC)c1NC(=O)Cn1nnc2sc3c(c2c1=O)CCCC3 | inactive
9 | Cc1ccc(-c2nnn(CC(=O)N(c3ccccc3)C(C(=O)NC3CCCC3)c3ccco3)n2)o1 (stereo not given) | inconclusive [inhibitor, full curve]
10 | COc1ccc2nc(C)cc(Nc3ccc(N4CCOCC4)cc3)c2c1 | inconclusive [inhibitor, single point]
11 | Cc1cc([N+](=O)[O-])nn1CCC(=O)NC1CCCCCC1 | inconclusive [inhibitor, full curve, poor fit]
12 | CCOC(=O)C1=C(C)OC(N)=C(C#N)C1c1cc(C)sc1C (stereo not given) | inconclusive [inhibitor, single point]
13 | CCOc1ccccc1NC(=O)CSc1ccc2nc(-c3ccccc3)cn2n1 | inactive
14 | COc1ccc2c(c1)O/C(=C\c1ccccc1C)C2=O | inactive
15 | COc1ccc(CC(=O)NCC(=O)N/N=C/c2ccc(C)o2)cc1 | inconclusive [inhibitor, full curve, poor fit]
16 | COCCC1CCCCN1C(=O)c1cccc(OC2CCN(S(C)(=O)=O)CC2)c1 (stereo not given) | inactive
17 | Cn1c(-c2ccc3c(c2)OCO3)cnc1NC(=O)CCC(=O)NCCc1ccccc1 | inconclusive [inhibitor, full curve, poor fit]
18 | Cc1cc(C)cc(NC(=O)c2cccc(C(=O)Nc3cc(C)cc(C)c3)c2)c1 | inactive
19 | CCCCn1c(N)c(N(CC)C(=O)Cc2ccc(S(=O)(=O)N3CCOCC3)s2)c(=O)[nH]c1=O | inconclusive [inhibitor, full curve, poor fit]
20 | O=C(NCc1ccccc1)C1=C[C@H](c2csc3ccccc23)C[C@H](OCCCCO)O1 | inactive
21 | COC(=O)C1NN=C(C(=O)c2ccc(Br)cc2)C1c1cccc(Br)c1 (stereo not given) | inconclusive [inhibitor, partial curve, poor fit]
22 | CC(C)NC(=O)NC1C2CC3CC(C2)CC1C3 (stereo not given) | inactive
23 | COc1ccc(-n2c(=O)c3c(c4cc(OC)ccc4n3C)n(CC(=O)N3CCCC3)c2=O)cc1 | inconclusive [inhibitor, partial curve, poor fit]

Row | SMILES | Potency
24 | CCOC(=O)CSC1=C(C#N)C(c2ccccc2C)C2=C(CCCC2=O)N1 (stereo not given) | inconclusive [inhibitor, full curve, poor fit]
25 | COC(=O)c1ccc(-n2nnnc2SCC(=O)Nc2ccccc2F)cc1 | inconclusive [inhibitor, partial curve]
26 | Cc1cc(OCCN2CCOCC2)ccc1[N+](=O)[O-] | inconclusive [inhibitor, full curve, poor fit]
27 | CC(=O)c1cccc(Nc2cc(C)nc3c(C)cc(C)cc23)c1 | inactive
28 | Cn1c(=O)c2c(nc(CN3CCN(c4ccccc4)CC3)n2Cc2ccccc2Cl)n(C)c1=O | inconclusive [inhibitor, full curve, poor fit]
29 | O=C(Cn1cc2c(n1)CCCCC2)N1CCc2ccccc2C1 | inconclusive [inhibitor, full curve, poor fit]
30 | O=S1(=O)N[C@H](c2ccccc2)C[C@H](c2ccc(C(F)(F)F)cc2)O1 | inconclusive [inhibitor, full curve]
31 | CCOP(=O)(OCC)C(Nc1cccc(C(F)(F)F)c1)c1ccc(F)cc1 (stereo not given) | inconclusive [inhibitor, full curve, poor fit]
32 | Cc1ccc(S(=O)(=O)/N=C(\CCl)N2CCOCC2)cc1 | inconclusive [inhibitor, partial curve, poor fit]
33 | COc1cc(NS(=O)(=O)c2ccc3c(c2)oc(=O)n3C)cc(OC)c1OC | inconclusive [inhibitor, partial curve]
34 | CCOC(=O)c1cnc2c(C)c(Cl)ccc2c1NCCCN1CCOCC1 | inconclusive [inhibitor, full curve, poor fit]
35 | COc1ccc(CNC(=O)c2cc3c(=O)n4cccc(C)c4nc3n(CC3CCCO3)c2=N)cc1 (stereo not given) | inactive
36 | COc1ccc(NC(=O)C(C)NS(=O)(=O)c2ccc(NC(C)=O)cc2)cc1Cl (stereo not given) | inconclusive [inhibitor, full curve, poor fit]
37 | O=C(O)c1cccc(COc2ccc(CO)cc2Cl)c1 | inactive
38 | CSC1=N/C(=C\c2ccc(F)cc2)C(=O)S1 | inconclusive [inhibitor, partial curve, poor fit]
39 | Cc1cc(C(=O)NNC(=O)NC(C)C)no1 | inactive
40 | COc1ncnc2c1oc1nc(C(C)C)c3c(c12)CC(C)(C)OC3 | inconclusive [inhibitor, full curve, poor fit]
41 | CCC/C(=N\NC(=O)c1ccc(OC)c(OC)c1)c1ccccc1 | inconclusive [inhibitor, full curve, poor fit]
42 | C=CCn1c(SCC(=O)Nc2cc(NC(C)=O)ccc2OC)nnc1-c1ccccn1 | inactive
43 | O=C(CSc1n[nH]c(=O)n1-c1cccnc1)N1CCOCC1 | inactive
44 | O=C(COC(=O)c1ccco1)NCCNC(=O)COC(=O)c1ccco1 | inactive
45 | CCCCOc1cccc(-c2cc(C(=O)NNC(=S)NCC)c3ccccc3n2)c1 | inconclusive [inhibitor, full curve, poor fit]
